# Reference: the supplement of paper PMC12217912
# The other results are listed elsewhere or left out. Sequences were assembled here from the parent chain. Values near 0.05 are background.
# B1: TEV protease; numbered along this chain (parent)
# chain: MGESLFKGPRDYNPISSSICHLTNESDGHTTSLYGIGFGPFIITNKHLFRRNNGTLVVQSLHGVFKVKDTTTLQQHLVDGRDMIIIRMPKDFPPFPQKLKFREPQREERICLVTTNFQTKSMSSMVSDTSCTFPSGDGIFWKHWIQTKDGQCGSPLVSTRDGFIVGIHSASNFTNTNNYFTSVPKNFMELLTNQEAQQWVSGWRLNADSVLWGGHKVFMVKPEEPFQPVKEATQL
# Variants of: B1
# Test: raw area under fraction-flipped curve 0-4 h after induction (AUC4h, not background-subtracted), DNA-recorder readout of cleavage of the substrate (dimensionless); higher = more cleavage of the substrate by the protease variant
# Conditions: temperature: 34 °C; time window: 0-4 h after rhamnose induction
# Experimental: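 In vivo DNA recorder in E. coli TOP10(DE3) ΔrhaA at 34 °C. Each TEVp single-site mutant (parent TEVp 0) is paired with a single-site variant of the 7-mer TEVs (canonical ENLYFQ|S). The substrate sits between flexible linkers in a Bxb1-sfGFP-TEVs-SsrA fusion, so cleavage stabilises Bxb1 and speeds flipping of a recombination array, read by NGS. The value is the raw area under the fraction-flipped curve over 0-4 h after rhamnose induction (AUC4h), with ≥20 reads per time point. It is not background-subtracted; inactive controls average about 0.047.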
# 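Also: Bxb1 expression induced with 0.2% (w/v) L-rhamnose at OD600 near 0.5, cultures sampled hourly, flipped fraction per protease–substrate barcode pair counted by paired-end Illumina sequencing.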
Variant,area with substrate ENLYAQS,area with substrate ENLYDQS,area with substrate ENLYEQS,area with substrate ENLYGQS,area with substrate ENLYHQS,area with substrate ENLYIQS,area with substrate ENLYKQS,area with substrate ENLYMQS,area with substrate ENLYNQS,area with substrate ENLYPQS,area with substrate ENLYQQS,area with substrate ENLYRQS,area with substrate ENLYSQS,area with substrate ENLYTQS,area with substrate ENLYVQS,area with substrate ENLYLQS,area with substrate ENLYWQS,area with substrate ENLYCQS,area with substrate ENLYYQS
MGESLFKGPRDYNPISSSICHLTNESDGHTTSLYGIGFGPFIITNKHLFRRNNGTLVVQSLHGVFKVKDTTTLQQHLVDGRDMIIIRMPKDFPPFPQKLKFREPQREERICLVTTNFQTKSMSSMVSDTSCTFPSGDGIFWKHWIQTKDGACGSPLVSTRDGFIVGIHSASNFTNTNNYFTSVPKNFMELLTNQEAQQWVSGWRLNADSVLWGGHKVFMVKPEEPFQPVKEATQL [Q151A],0.0732,0.05,0.0666,0.0491,0.0658,0.103,0.0259,0.0868,0.0537,0.0667,0.0459,0.0722,0.067,0.0686,0.121,,,,
MGESLFKGPRDYNPISSSICHLTNESDGHTTSLYGIGFGPFIITNKHLFRRNNGTLVVQSLHGVFKVKDTTTLQQHLVDGRDMIIIRMPKDFPPFPQKLKFREPQREERICLVTTNFQTKSMSSMVSDTSCTFPSGDGIFWKHWIQTKDGQCGQPLVSTRDGFIVGIHSASNFTNTNNYFTSVPKNFMELLTNQEAQQWVSGWRLNADSVLWGGHKVFMVKPEEPFQPVKEATQL [S154Q],0.0756,0.0669,,,,,0.0532,0.0777,0.0683,,,,0.101,0.099,0.157,0.0582,0.0978,,
MGEFLFKGPRDYNPISSSICHLTNESDGHTTSLYGIGFGPFIITNKHLFRRNNGTLVVQSLHGVFKVKDTTTLQQHLVDGRDMIIIRMPKDFPPFPQKLKFREPQREERICLVTTNFQTKSMSSMVSDTSCTFPSGDGIFWKHWIQTKDGQCGSPLVSTRDGFIVGIHSASNFTNTNNYFTSVPKNFMELLTNQEAQQWVSGWRLNADSVLWGGHKVFMVKPEEPFQPVKEATQL [S4F],0.0896,0.0584,0.0722,0.0753,0.0722,0.157,,0.106,0.094,,0.0922,,0.104,,0.163,0.121,,,
MGESLFKGPRDYNPISSSICHLTNESDGHTTSLYGIGFGPFIITNKHLFRRNNGTLVVQSLHGVFKVKDTTTLQQHLVDGRDMIIIRMPKDFPPFPQKLKFREPQREERICLVTTNFQTKSMSSMVFDTSCTFPSGDGIFWKHWIQTKDGQCGSPLVSTRDGFIVGIHSASNFTNTNNYFTSVPKNFMELLTNQEAQQWVSGWRLNADSVLWGGHKVFMVKPEEPFQPVKEATQL [S127F],0.0832,0.059,0.068,0.0414,0.06,0.109,0.0721,0.092,0.0521,0.0763,,0.0734,,,0.129,,,0.105,0.0622
MGESLFKGPRDYNPISSSICHLTNESDGHTTSLYGIGFGPFIITNKHLFRRNNGTLVVQSLHGVFKVKDTTTLQQHLVDGRDMIIIRMPKDFPPFPQKLKFREPQREERICPVTTNFQTKSMSSMVSDTSCTFPSGDGIFWKHWIQTKDGQCGSPLVSTRDGFIVGIHSASNFTNTNNYFTSVPKNFMELLTNQEAQQWVSGWRLNADSVLWGGHKVFMVKPEEPFQPVKEATQL [L112P],0.0421,,0.0587,0.0556,0.0611,0.05,0.0472,0.053,0.057,0.0645,0.048,0.0549,,0.0584,,0.0513,0.0604,0.0512,
MGESLFKGPRDYNPISSSICHLTNESDGHTTSLYGIGFGPFIITNKHLFRRNNGTLVVQSLHGVFKVKDTTTLQQHLVDGRDMIIIRMPKDFPPFPQKLKFREPQREERICLVTTNFQTKSMSSMVSDTSCTFPSGDGIFWKHWIQLKDGQCGSPLVSTRDGFIVGIHSASNFTNTNNYFTSVPKNFMELLTNQEAQQWVSGWRLNADSVLWGGHKVFMVKPEEPFQPVKEATQL [T147L],0.0798,0.0547,0.0611,0.0298,0.0632,0.0675,0.0639,0.0561,0.0589,0.0614,,0.0403,0.0721,0.0593,0.0715,0.0723,0.0542,0.0778,0.0739
MGESLFKGPRDYNPISSSICHLTNESDGHTTSLYGIGFGPFIITNKHLFRRNNGTLVVQSLHGVFKVKDTTTLQQHLVDGRDMIIIRMPKDFPPFPQKLKFREPQREERICLVTTNFQTKSMSSMVSDTSCTFPSGDGIFWKHWIQTKDGQCGSPLVSTRDGFIVGIHSASNFTNTNNYFTSVPKNFMELLTNQEAQQWVSGWRLNADSVLWGGHKVFMVKPEEPFQPVKEATQS [L235S],0.0785,0.0512,0.078,,0.0692,0.139,,,,0.0842,,0.0806,,,,,0.0764,,
MGESLFKGPRDYNPISSSICHLTNESDGHTTSLYGIGFGPFIITNKHLFRRNNGTLVVQSLHGVFKVKDTTTLQQHLVDGRDMIIIRMPKDFPPTPQKLKFREPQREERICLVTTNFQTKSMSSMVSDTSCTFPSGDGIFWKHWIQTKDGQCGSPLVSTRDGFIVGIHSASNFTNTNNYFTSVPKNFMELLTNQEAQQWVSGWRLNADSVLWGGHKVFMVKPEEPFQPVKEATQL [F95T],0.0536,,,0.053,,,0.0474,0.057,,,,0.0373,0.0428,,0.0997,,,0.0601,
MGESLFKGPRDYNPISSSICHLTNESDGHTTSLYGIGFGPFIITNKHLFRRNNGTLVVQSLHGVFKVKDTTTLQQHLVDGRDMIIIRMPKDFPPFPQKLKFREPQREERICLVTTNFQTKSMSSMVSDTSCTFPSGDGIFWKHWIQTKDGQCGSPLVSTRDGFIVGIHSASNFTNTNNYFTSVPKNFMELLTNVEAQQWVSGWRLNADSVLWGGHKVFMVKPEEPFQPVKEATQL [Q194V],0.0813,,0.0735,0.0599,0.0701,,0.0813,,0.0757,,,0.0543,,,,,,,
